For assay [1], the system named is hepatitis B virus (HBV) ayw strain. In words: Extracellular HBV DNA from HepG2-2.2.15 cells, real-time quantitative PCR. The settings on record: TOFA 90 μg/mL. An excerpt: HepG2-2.2.15 is a stable cell line containing the hepatitis B virus (HBV) ayw strain genome that is useful in identifying and characterizing Compounds blocking any step of viral replication, such as, transcription, translation, pregenome encapsidation, reverse transcription, particle assembly and release. In one aspect, Compounds can be added to HepG2-2.2.15 culture to test whether Compound will reduce the production of secreted HBV from cells utilizing real time quantitative PCR (TaqMan) assay to measure HBV DNA copies. […] HBV virion DNA in the culture medium can be assessed 24 hours after the last treatment by quantitative blot hybridization or real time quantitative PCR (TaqMan) assay. […] Intracellular HBV DNA replication intermediates can be assessed by quantitative Southern blot hybridization. […] ELISAs can be used to quantify the amounts of the HBV envelope protein, surface antigen (HBsAg), and secreted e-antigen (HBeAg) released from cultures. […]
HBV causes serious, life-threatening, chronic disease in humans. […] The medium with the ACC inhibitor is replaced every 24 hours, and media samples are removed after drug treatment for 24, 48, 72 or 96 hours and assayed for the presence of extracellular viral DNA by real-time quantitative PCR. […]

Assay [2] deals with HCMV. The assay can be described thus: HCMV replication in human fibroblasts with a combination of ACC inhibitor and Cox inhibitor. The source says: Cox inhibitors block the production of prostaglandins, lipid compounds that serve as second messages and elicit a wide range of physiological responses in cells and tissues. A non-limiting example of a rationale for a beneficial antiviral effect of a combination of ACC inhibitor and Cox inhibitor follows from the fact that eicosinoids are synthesized by COX action on arachidonic acid. Arachidonic acid is derived from diet and fatty acid synthesis, and, consequently, its availability is influenced by ACC activity. A non-limiting example of an assay that can be performed to assess the effect of a combination of an ACC inhibitor plus Cox inhibitor on HCMV replication follows. Assays for TOFA-mediated antiviral activity using HCMV-infected human fibroblasts have been described in this document. In each assay, various concentrations of TOFA can be combined with various concentrations of indomethacin and assayed for their effect on virus replication. In one preferred embodiment, a physiological concentration of indomethacin is held constant as the dose of TOFA is increased. Control cultures are treated with no drug, indomethacin alone or the various concentrations of TOFA alone. […] The antiviral effect of indomethacin plus each concentration of TOFA is then compared to the activity of indomethacin alone or the various concentrations of TOFA alone. […]

Structures are written as SMILES. Some results are limits rather than exact numbers.

In the case of `CCCCCCCCCCCCCCOc1ccc(C(=O)O)o1` [TOFA, 5-(tetradecyloxy)-2-furoic acid], in assay [1], the “production of extracellular HBV DNA” value is recorded as “almost completely blocks production of extracellular HBV DNA”. The “concentration of TOFA required to produce a 10-fold reduction in HCMV replication” value in assay [2] (in the presence of a pharmacologically acceptable concentration of indomethacin) was at most 5 μg/mL; in assay [2] (without indomethacin), about 10 μg/mL.
